# From the supplement of paper PMC8728848
# Some of the results follow.
# B1: PMA (Polygonatum multiflorum) (protein)
# chain: LLTTTLFVFISSTRSLASTNVLYSDVGNAILNAKESLIYGDYRLDMQSDCNLVLYNKAAPYWASGTRWSWGGNCHLNLQSNGELVMYAYLGRTRIAIWRSGIISATGSYALVLKYDGALHVHGPSLWSTNATGPTTPTTASWSIDSTLWSGDVATIGPTIANGDYKLELLDTCNLTLSNTKTGQVLWYTNTTDWVHDCYVNIEGNGELKIKYLGGATLWSNKVGAGYTNNYVLGLRPDGKLDTYNAPIWSPTIGPGVHVAPAVYNASSNAVAAEGNGEKIAMVTGRAKNST
# Tests used:
# Assay in all cases: glycan array binding signal (z-score within array); higher = stronger binding
# Conditions in all cases: glycan notation: IUPAC condensed, linker removed
# [1] = biological target: Neu5Ac(a2-3)Gal(b1-3)GalNAc(b1-3)Gal(b1-4)GlcNAc
# Outline: (§1)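 Glycan array data came from 3228 arrays in the Consortium for Functional Glycomics database, and only arrays with an available protein sequence were kept. Glycan names were put into IUPAC-condensed notation, and columns mapping to the same glycan were averaged. The binding signal is a within-array Z-score, averaged across arrays of one protein sequence run at different concentrations or buffers and across linkers. A negative Z-score can be read as non-binding.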
# [2] = biological target: Neu5Ac(a2-3)Gal(b1-3)GalNAc(b1-4)[Neu5Ac(a2-3)]Gal(b1-4)Glc
# Outline: as §1
# [3] = biological target: Neu5Ac(a2-3)Gal(b1-3)GalNAc6S
# Outline: as §1
# [4] = biological target: Neu5Ac(a2-3)Gal(b1-3)GlcNAc
# Outline: as §1
# [5] = biological target: Neu5Ac(a2-3)Gal(b1-3)GlcNAc6S
# Outline: as §1
# [6] = biological target: Neu5Ac(a2-3)Gal(b1-3)[Fuc(a1-4)]GlcNAc
# Outline: as §1
# [7] = biological target: Neu5Ac(a2-3)Gal(b1-3)[Fuc(a1-4)]GlcNAc(b1-3)Gal(b1-4)[Fuc(a1-3)]GlcNAc
# Outline: as §1
# [8] = biological target: Neu5Ac(a2-3)Gal(b1-3)[Neu5Ac(a2-3)Gal(b1-4)]GlcNAc
# Outline: as §1
# [9] = biological target: Neu5Ac(a2-3)Gal(b1-3)[Neu5Ac(a2-6)]GalNAc
# Outline: as §1
# [10] = biological target: Neu5Ac(a2-3)Gal(b1-4)Glc
# Outline: as §1
# [11] = biological target: Neu5Ac(a2-3)Gal(b1-4)GlcNAc
# Outline: as §1
# [12] = biological target: Neu5Ac(a2-3)Gal(b1-4)GlcNAc(b1-2)Man(a1-3)[Neu5Ac(a2-3)Gal(b1-4)GlcNAc(b1-2)Man(a1-6)]Man(b1-4)GlcNAc(b1-4)GlcNAc
# Outline: as §1
# [13] = biological target: Neu5Ac(a2-3)Gal(b1-4)GlcNAc(b1-3)Gal(b1-4)GlcNAc
# Outline: as §1
# [14] = biological target: Neu5Ac(a2-3)Gal(b1-4)GlcNAc(b1-3)Gal(b1-4)GlcNAc(b1-3)Gal(b1-4)GlcNAc
# Outline: as §1
# [15] = biological target: Neu5Ac(a2-3)Gal(b1-4)GlcNAc(b1-3)Gal(b1-4)[Fuc(a1-3)]GlcNAc
# Outline: as §1
# [16] = biological target: Neu5Ac(a2-3)Gal(b1-4)GlcNAc6S
# Outline: as §1
# [17] = biological target: Neu5Ac(a2-3)Gal(b1-4)[Fuc(a1-3)]GlcNAc
# Outline: as §1
# [18] = biological target: Neu5Ac(a2-3)Gal(b1-4)[Fuc(a1-3)]GlcNAc(b1-3)Gal
# Outline: as §1
# [19] = biological target: Neu5Ac(a2-3)Gal(b1-4)[Fuc(a1-3)]GlcNAc(b1-3)Gal(b1-4)GlcNAc
# Outline: as §1
# [20] = biological target: Neu5Ac(a2-3)Gal(b1-4)[Fuc(a1-3)]GlcNAc(b1-3)Gal(b1-4)[Fuc(a1-3)]GlcNAc(b1-3)Gal(b1-4)[Fuc(a1-3)]GlcNAc
# Outline: as §1
# [21] = biological target: Neu5Ac(a2-3)Gal(b1-4)[Fuc(a1-3)]GlcNAc6S
# Outline: as §1
# [22] = biological target: Neu5Ac(a2-3)Gal6S(b1-4)GlcNAc
# Outline: as §1
# [23] = biological target: Neu5Ac(a2-3)Gal6S(b1-4)[Fuc(a1-3)]GlcNAc
# Outline: as §1
# [24] = biological target: Neu5Ac(a2-3)GalNAc
# Outline: as §1
# [25] = biological target: Neu5Ac(a2-3)GalNAc(b1-4)GlcNAc
# Outline: as §1
# [26] = biological target: Neu5Ac(a2-3)[GalNAc(b1-4)]Gal(b1-4)Glc
# Outline: as §1
# [27] = biological target: Neu5Ac(a2-3)[GalNAc(b1-4)]Gal(b1-4)GlcNAc
# Outline: as §1
# [28] = biological target: Neu5Ac(a2-3)[Neu5Ac(a2-6)]GalNAc
# Outline: as §1
# [29] = biological target: Neu5Ac(a2-6)Gal
# Outline: as §1
# [30] = biological target: Neu5Ac(a2-6)Gal(b1-4)Glc
# Outline: as §1
# [31] = biological target: Neu5Ac(a2-6)Gal(b1-4)GlcNAc
# Outline: as §1
# [32] = biological target: Neu5Ac(a2-6)Gal(b1-4)GlcNAc(b1-3)Gal(b1-4)GlcNAc
# Outline: as §1
# [33] = biological target: Neu5Ac(a2-6)Gal(b1-4)GlcNAc(b1-3)Gal(b1-4)[Fuc(a1-3)]GlcNAc(b1-3)Gal(b1-4)[Fuc(a1-3)]GlcNAc
# Outline: as §1
# [34] = biological target: Neu5Ac(a2-6)Gal(b1-4)GlcNAc6S
# Outline: as §1
# [35] = biological target: Neu5Ac(a2-6)GalNAc
# Outline: as §1
# [36] = biological target: Neu5Ac(a2-6)GalNAc(b1-4)GlcNAc
# Outline: as §1
# [37] = biological target: Neu5Ac(a2-8)Neu5Ac
# Outline: as §1
# [38] = biological target: Neu5Ac(a2-8)Neu5Ac(a2-3)Gal(b1-4)Glc
# Outline: as §1
binder,measurement,setting,value
B1,glycan array binding signal (z-score),[1],-0.243
same,glycan array binding signal (z-score),[2],-0.249
same,glycan array binding signal (z-score),[3],-0.25
same,glycan array binding signal (z-score),[4],-0.23
same,glycan array binding signal (z-score),[5],-0.048
same,glycan array binding signal (z-score),[6],-0.252
same,glycan array binding signal (z-score),[7],-0.247
same,glycan array binding signal (z-score),[8],-0.191
same,glycan array binding signal (z-score),[9],-0.266
same,glycan array binding signal (z-score),[10],-0.233
same,glycan array binding signal (z-score),[11],-0.251
same,glycan array binding signal (z-score),[12],-0.04
same,glycan array binding signal (z-score),[13],-0.253
same,glycan array binding signal (z-score),[14],-0.179
same,glycan array binding signal (z-score),[15],-0.228
same,glycan array binding signal (z-score),[16],-0.251
same,glycan array binding signal (z-score),[17],-0.241
same,glycan array binding signal (z-score),[18],-0.261
same,glycan array binding signal (z-score),[19],-0.243
same,glycan array binding signal (z-score),[20],-0.248
same,glycan array binding signal (z-score),[21],-0.247
same,glycan array binding signal (z-score),[22],-0.195
same,glycan array binding signal (z-score),[23],-0.011
same,glycan array binding signal (z-score),[24],-0.195
same,glycan array binding signal (z-score),[25],-0.252
same,glycan array binding signal (z-score),[26],-0.249
same,glycan array binding signal (z-score),[27],-0.252
same,glycan array binding signal (z-score),[28],-0.152
same,glycan array binding signal (z-score),[29],-0.247
same,glycan array binding signal (z-score),[30],-0.255
same,glycan array binding signal (z-score),[31],-0.249
same,glycan array binding signal (z-score),[32],-0.246
same,glycan array binding signal (z-score),[33],-0.241
same,glycan array binding signal (z-score),[34],-0.215
same,glycan array binding signal (z-score),[35],-0.182
same,glycan array binding signal (z-score),[36],-0.259
same,glycan array binding signal (z-score),[37],-0.078
same,glycan array binding signal (z-score),[38],-0.253
